{
  "source": "paper PMC4336329",
  "about": "(PLoS ONE, 2015)",
  "note": "The whole screen tested about 310,000 compounds, of which about 2,200 (0.71%) showed an effect of 50% or more. The effect is printed as a negative number. The list shows a part of the results.",
  "data": [
    {"molecular_target": "human ether-à-go-go-related gene (hERG) potassium channel (human, UniProt Q12809)", "sequence (Q12809 whole entry, looked up)": "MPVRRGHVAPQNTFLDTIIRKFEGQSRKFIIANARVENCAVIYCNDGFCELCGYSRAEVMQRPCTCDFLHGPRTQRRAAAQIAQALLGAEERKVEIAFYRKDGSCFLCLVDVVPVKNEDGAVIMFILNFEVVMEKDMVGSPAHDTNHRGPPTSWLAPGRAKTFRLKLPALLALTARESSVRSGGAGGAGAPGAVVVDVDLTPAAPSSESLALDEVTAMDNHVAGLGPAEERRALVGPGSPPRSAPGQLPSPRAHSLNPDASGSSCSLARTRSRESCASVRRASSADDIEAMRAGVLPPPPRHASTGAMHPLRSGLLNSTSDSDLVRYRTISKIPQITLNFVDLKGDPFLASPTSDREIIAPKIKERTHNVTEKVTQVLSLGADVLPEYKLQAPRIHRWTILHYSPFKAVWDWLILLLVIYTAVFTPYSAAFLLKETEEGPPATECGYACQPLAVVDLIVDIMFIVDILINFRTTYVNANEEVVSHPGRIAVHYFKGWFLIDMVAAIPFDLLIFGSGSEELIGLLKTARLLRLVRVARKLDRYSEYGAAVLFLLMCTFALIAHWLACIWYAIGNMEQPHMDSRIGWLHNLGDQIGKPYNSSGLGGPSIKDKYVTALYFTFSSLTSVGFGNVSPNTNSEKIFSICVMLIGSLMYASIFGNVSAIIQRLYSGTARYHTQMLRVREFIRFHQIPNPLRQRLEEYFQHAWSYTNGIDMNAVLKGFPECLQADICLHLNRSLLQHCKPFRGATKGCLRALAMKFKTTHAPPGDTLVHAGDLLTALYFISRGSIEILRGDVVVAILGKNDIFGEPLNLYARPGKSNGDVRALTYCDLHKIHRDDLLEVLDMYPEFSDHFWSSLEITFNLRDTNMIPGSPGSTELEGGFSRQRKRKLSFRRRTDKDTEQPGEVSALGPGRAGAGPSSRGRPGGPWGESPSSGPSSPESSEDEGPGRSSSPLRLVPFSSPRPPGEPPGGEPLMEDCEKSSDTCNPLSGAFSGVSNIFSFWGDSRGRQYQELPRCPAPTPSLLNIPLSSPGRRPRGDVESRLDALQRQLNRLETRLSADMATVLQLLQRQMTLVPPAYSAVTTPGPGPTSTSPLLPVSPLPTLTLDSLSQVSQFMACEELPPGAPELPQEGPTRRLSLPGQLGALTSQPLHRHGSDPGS", "assay": "primary screen, population patch clamp on CHO cells stably expressing hERG", "units": {"hERG current change (%, negative = inhibition) at 1uM": "%"}, "values": [
      {"smiles": "O=C(CSc1nnc2ccc(-c3ccccn3)nn12)NCC1CCCO1", "note": "(centres unmarked)", "hERG current change (%, negative = inhibition) at 1uM": 8.64},
      {"smiles": "CCS(=O)(=O)N1CCC(C(=O)Oc2ccccc2Cl)CC1", "hERG current change (%, negative = inhibition) at 1uM": 14.1},
      {"smiles": "O=C(Nc1ccc(Cl)c(Cl)c1)Nn1cnnc1", "hERG current change (%, negative = inhibition) at 1uM": 6.89},
      {"smiles": "O=C(COC(=O)Cc1ccsc1)NCC12CC3CC(CC(C3)C1)C2", "hERG current change (%, negative = inhibition) at 1uM": 9.27},
      {"smiles": "COc1ccc(Cl)cc1Nc1nnc(-c2ccncc2)s1", "hERG current change (%, negative = inhibition) at 1uM": 4.31},
      {"smiles": "C=CCNC(=O)/C(C#N)=C/c1ccc(C)o1", "hERG current change (%, negative = inhibition) at 1uM": 17.2},
      {"smiles": "COC(=O)C(O)(c1c(C)[nH]c2ccccc12)C(F)(F)F", "note": "(centres unmarked)", "hERG current change (%, negative = inhibition) at 1uM": 5.55},
      {"smiles": "CC(C)(C)c1ccc(C(=O)N2CCC(C(=O)N3CCCCC3)CC2)cc1", "hERG current change (%, negative = inhibition) at 1uM": 7.7},
      {"smiles": "CCOC(=O)N1CCN(C(=O)c2cc3sccc3n2C)CC1", "hERG current change (%, negative = inhibition) at 1uM": 8.81},
      {"smiles": "COC(=O)CN1C(=O)C(O)=C(C(C)=O)C1c1ccc([N+](=O)[O-])cc1", "note": "(centres unmarked)", "hERG current change (%, negative = inhibition) at 1uM": -0.624},
      {"smiles": "Cc1c(C(=O)NCCC2=CCCCC2)oc2ccc(S(=O)(=O)N3CCC4(CC3)OCCO4)cc12", "hERG current change (%, negative = inhibition) at 1uM": 10.6},
      {"smiles": "COc1ccc(NS(=O)(=O)c2ccc(S(=O)(=O)N3CCCC3)cc2)cc1Cl", "hERG current change (%, negative = inhibition) at 1uM": -3.44},
      {"smiles": "Cc1cc(N2C(=O)C(O)=C(C(=O)c3cc4ccccc4o3)C2c2cccc(Br)c2)no1", "note": "(centres unmarked)", "hERG current change (%, negative = inhibition) at 1uM": 16.2},
      {"smiles": "CNC(=O)N(O)C1N(/N=C/c2ccccc2O)C(=S)SC1(C)C", "note": "(centres unmarked)", "hERG current change (%, negative = inhibition) at 1uM": 5.59},
      {"smiles": "O=S(=O)(Nc1cccc(C(F)(F)F)c1)c1cccnc1", "hERG current change (%, negative = inhibition) at 1uM": 7.26},
      {"smiles": "O=[N+]([O-])c1cccc(-c2ccc(SCc3ccccn3)nn2)c1", "hERG current change (%, negative = inhibition) at 1uM": 5.92},
      {"smiles": "CN1c2ccsc2C(O)=C(C(=S)Nc2ccccc2)S1(=O)=O", "hERG current change (%, negative = inhibition) at 1uM": 8.83},
      {"smiles": "CCCCN(C(=O)CCC(=O)Nc1cc(C)on1)C(C(=O)NC1CCCC1)c1ccc(F)cc1", "note": "(centres unmarked)", "hERG current change (%, negative = inhibition) at 1uM": 7.75},
      {"smiles": "Nc1c(-c2cccc([N+](=O)[O-])c2)nc2ccccn12", "hERG current change (%, negative = inhibition) at 1uM": 4.59},
      {"smiles": "O=c1[nH]c(CN2CCN(c3ccccc3O)CC2)nc2ccccc12", "hERG current change (%, negative = inhibition) at 1uM": 7.1},
      {"smiles": "CN1CCN(C(N)=NC(=O)c2ccccc2)CC1", "hERG current change (%, negative = inhibition) at 1uM": 6.48},
      {"smiles": "CCOc1cccc(C(=O)N/N=C/c2ccoc2)c1", "hERG current change (%, negative = inhibition) at 1uM": 13.3},
      {"smiles": "Cc1ccc(C)c(C(=O)CN2C(=O)NC3(CCc4ccccc43)C2=O)c1", "note": "(centres unmarked)", "hERG current change (%, negative = inhibition) at 1uM": 3.21},
      {"smiles": "COc1ccccc1NC(=O)c1cccc(S(=O)(=O)N2CCOCC2)c1", "hERG current change (%, negative = inhibition) at 1uM": 8.31},
      {"smiles": "Cc1ccc(C)c(N2CCN(CCCc3ccccc3)CC2)c1", "hERG current change (%, negative = inhibition) at 1uM": 1.81},
      {"smiles": "C/C(=N\\NC(=O)C(C)Sc1ccccc1)c1ccc([N+](=O)[O-])cc1", "note": "(centres unmarked)", "hERG current change (%, negative = inhibition) at 1uM": 8.3},
      {"smiles": "O=S(=O)(Nc1ccc(N2CCCCC2)cc1)c1cccc2cccnc12", "hERG current change (%, negative = inhibition) at 1uM": -0.541},
      {"smiles": "Cc1cc(NC(=O)COC(=O)COc2ccc(C(=O)c3ccccc3)cc2)no1", "hERG current change (%, negative = inhibition) at 1uM": 6.99},
      {"smiles": "C/C(CC(=O)Nc1cccnc1)=N\\NC(=O)C(C)Oc1ccc(Cl)cc1Cl", "note": "(centres unmarked)", "hERG current change (%, negative = inhibition) at 1uM": 15.6},
      {"smiles": "OC(CN1CCN(Cc2ccccc2)CC1)Cn1c2ccccc2c2ccccc21", "note": "(centres unmarked)", "hERG current change (%, negative = inhibition) at 1uM": 11.7},
      {"smiles": "Cc1ccc(Sc2ccc(/C=C3/C(=O)NN(c4ccccc4)C3=O)o2)cc1", "hERG current change (%, negative = inhibition) at 1uM": 10.5},
      {"smiles": "C=CCOc1ccc(/C=N\\NC(N)=S)cc1", "hERG current change (%, negative = inhibition) at 1uM": 12},
      {"smiles": "COc1cc(CNC2CCCCCCC2)cc(Cl)c1OCC(N)=O.Cl", "hERG current change (%, negative = inhibition) at 1uM": 9.62},
      {"smiles": "CCNc1c(NC(=O)C2CCC(C)CC2)c(=O)oc2ccccc12", "note": "(centres unmarked)", "hERG current change (%, negative = inhibition) at 1uM": 11.3},
      {"smiles": "CN(C)CCCNC(=O)/C(=C\\c1ccc(-c2cccc([N+](=O)[O-])c2)o1)NC(=O)c1ccccc1", "hERG current change (%, negative = inhibition) at 1uM": -77.9},
      {"smiles": "CCOC(=O)C1CCN(C(=O)c2ccc(CNS(=O)(=O)c3ccc(OC)cc3)cc2)CC1", "hERG current change (%, negative = inhibition) at 1uM": 2.8},
      {"smiles": "Cc1cc(C(=O)CSc2nnc(-c3ccc4c(c3)OCO4)o2)c(C)n1-c1ccc(F)cc1", "hERG current change (%, negative = inhibition) at 1uM": 5.94},
      {"smiles": "CCOc1ccc(NC(=O)CS(=O)CC(=O)Nc2cccnc2)cc1", "note": "(centres unmarked)", "hERG current change (%, negative = inhibition) at 1uM": 17.7},
      {"smiles": "COc1ccccc1N(CC(=O)N1CCOCC1)S(C)(=O)=O", "hERG current change (%, negative = inhibition) at 1uM": 15.9},
      {"smiles": "CCOc1ccc(NC(=O)CC2NCCNC2=O)cc1", "note": "(centres unmarked)", "hERG current change (%, negative = inhibition) at 1uM": 4.11},
      {"smiles": "CN1CCN(C(=O)NCC23CC4CC(CC(C4)C2)C3)CC1", "hERG current change (%, negative = inhibition) at 1uM": 11.9},
      {"smiles": "CC(=O)Nc1ccc(NC(=O)CSc2ccc(C(F)(F)F)cc2[N+](=O)[O-])cc1", "hERG current change (%, negative = inhibition) at 1uM": 7.37},
      {"smiles": "O=C(Nc1ccccc1N1CCCC1)C1CCN(S(=O)(=O)c2cccc(C(F)(F)F)c2)CC1", "hERG current change (%, negative = inhibition) at 1uM": 10.3},
      {"smiles": "Cc1cccc(/C(N)=N/OC(=O)c2ccc(Cl)cc2Cl)c1", "hERG current change (%, negative = inhibition) at 1uM": 8.57},
      {"smiles": "C/C(=N\\Nc1ccccn1)c1ccc(Br)s1", "hERG current change (%, negative = inhibition) at 1uM": 0.307},
      {"smiles": "Cc1ccc(/C=C2\\Sc3ccccc3C2=O)s1", "hERG current change (%, negative = inhibition) at 1uM": 8.98},
      {"smiles": "Cc1nn2c(C)c(C(=O)Nc3ccccc3)cnc2c1-c1ccccc1", "hERG current change (%, negative = inhibition) at 1uM": 7.99},
      {"smiles": "Cc1ccc(OCC(=O)NCCCNC(=O)c2ccco2)cc1", "hERG current change (%, negative = inhibition) at 1uM": 11.6},
      {"smiles": "O=C(N/N=C/c1ccccc1F)c1ccccc1OCc1ccccc1", "hERG current change (%, negative = inhibition) at 1uM": 10.8},
      {"smiles": "CS(=O)(=O)N(CC(=O)N1CCN(c2ccccc2F)CC1)c1cccc(C(F)(F)F)c1", "hERG current change (%, negative = inhibition) at 1uM": -0.389},
      {"smiles": "COc1cccc(C2C(C#N)=C(N)Oc3c2oc(CO)cc3=O)c1OC", "note": "(centres unmarked)", "hERG current change (%, negative = inhibition) at 1uM": 2.89},
      {"smiles": "Nc1ccc(NC(=O)NC2CCCCC2)cc1[N+](=O)[O-]", "hERG current change (%, negative = inhibition) at 1uM": 16.7},
      {"smiles": "Cc1cc2c3c([nH]c2cc1S(=O)(=O)NCCCOC(C)C)CC(C)(C)CC3=O", "hERG current change (%, negative = inhibition) at 1uM": 6.94},
      {"smiles": "C#CCOCCOCCOCCNc1nc(N2CCN(C(=O)C(Cc3cc4ccccc4[nH]3)n3cc(C(N)C(C)CC)nn3)CC2)nc(N2CCN(C(=O)C(Cc3cc4ccccc4[nH]3)n3cc(C(N)C(C)CC)nn3)CC2)n1.Cl", "note": "(centres unmarked)", "hERG current change (%, negative = inhibition) at 1uM": 6.36},
      {"smiles": "Cc1ccc(CN(C)C(=O)c2ccc3c(c2)NC(=O)CS3)o1", "hERG current change (%, negative = inhibition) at 1uM": -7.62},
      {"smiles": "O=C1C2C3C=CC(CC3)C2C(=O)N1/N=C/c1c(O)ccc2ccccc12", "note": "(centres unmarked)", "hERG current change (%, negative = inhibition) at 1uM": 6.58}
    ]}
  ]
}
